Results are given in words; binding and its absence hold for the method and conditions named. In cells and extracts the contact can be indirect. Some entries that bind do so weakly or less than the wild type. Sequences can lack the tags named with a protein.
T1: Flag-tagged W2 domain of BZW2 alone (human) (UniProt Q9Y6E2)
T1 sequence: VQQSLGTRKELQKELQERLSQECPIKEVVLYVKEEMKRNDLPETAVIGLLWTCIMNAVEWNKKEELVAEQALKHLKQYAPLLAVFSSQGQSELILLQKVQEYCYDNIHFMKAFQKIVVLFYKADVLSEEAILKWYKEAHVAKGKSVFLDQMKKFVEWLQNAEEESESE

T2: Flag-tagged basic leucine zipper and W2 domain-containing protein 2 (BZW2) (human) (UniProt Q9Y6E2)
T2 sequence: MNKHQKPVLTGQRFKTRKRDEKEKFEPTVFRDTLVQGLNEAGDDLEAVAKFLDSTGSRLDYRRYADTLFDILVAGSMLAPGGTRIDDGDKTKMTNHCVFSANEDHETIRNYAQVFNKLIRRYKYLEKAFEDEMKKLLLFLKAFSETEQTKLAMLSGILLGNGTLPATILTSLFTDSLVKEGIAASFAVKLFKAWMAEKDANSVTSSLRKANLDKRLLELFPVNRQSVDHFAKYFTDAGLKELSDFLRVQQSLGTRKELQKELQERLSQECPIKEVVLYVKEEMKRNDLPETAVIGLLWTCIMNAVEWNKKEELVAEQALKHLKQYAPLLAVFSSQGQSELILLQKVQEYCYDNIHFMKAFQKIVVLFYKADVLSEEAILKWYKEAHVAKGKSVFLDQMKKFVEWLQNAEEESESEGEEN

T3: Flag-RalA Q72L (human) (UniProt P11233)
T3 sequence: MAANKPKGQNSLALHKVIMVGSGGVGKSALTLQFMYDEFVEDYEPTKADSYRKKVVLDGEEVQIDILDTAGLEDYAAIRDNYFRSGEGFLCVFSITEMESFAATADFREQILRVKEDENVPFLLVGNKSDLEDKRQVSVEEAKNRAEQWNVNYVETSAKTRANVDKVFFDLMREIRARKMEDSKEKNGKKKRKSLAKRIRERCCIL

T4: Flag-RalA S28N (human) (UniProt P11233)
T4 sequence: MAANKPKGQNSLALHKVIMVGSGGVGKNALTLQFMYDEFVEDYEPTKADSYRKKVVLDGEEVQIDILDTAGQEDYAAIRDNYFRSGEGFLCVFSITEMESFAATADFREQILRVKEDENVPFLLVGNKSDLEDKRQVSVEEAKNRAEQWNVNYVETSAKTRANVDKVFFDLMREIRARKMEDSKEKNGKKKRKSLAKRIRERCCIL

T5: Flag-RalB Q72L (human) (UniProt P11234)
T5 sequence: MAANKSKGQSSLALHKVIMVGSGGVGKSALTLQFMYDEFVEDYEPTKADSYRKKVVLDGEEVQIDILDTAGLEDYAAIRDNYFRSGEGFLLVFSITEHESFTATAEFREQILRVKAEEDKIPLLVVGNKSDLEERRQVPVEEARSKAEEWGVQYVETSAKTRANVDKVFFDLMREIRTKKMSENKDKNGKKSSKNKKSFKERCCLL

T6: Flag-RalB S28N (human) (UniProt P11234)
T6 sequence: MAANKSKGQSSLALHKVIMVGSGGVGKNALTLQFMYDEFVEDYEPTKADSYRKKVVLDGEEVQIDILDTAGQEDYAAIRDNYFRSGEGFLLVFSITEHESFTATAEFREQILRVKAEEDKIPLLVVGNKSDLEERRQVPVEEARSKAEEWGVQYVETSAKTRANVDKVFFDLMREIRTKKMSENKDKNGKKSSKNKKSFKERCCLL


Key:
Test in all cases: co-IP; Flag-tagged protein expressed in HEK293; lysis in 1% NP40, 25 mM Tris-HCl pH 7.4, 150 mM NaCl, 10% glycerol; anti-FLAG M2 affinity gel, three washes with 0.2% NP40 buffer; partners detected by Western blot
[1] = target: T1, Flag-tagged W2 domain of BZW2 alone (human)
[2] = target: T2, Flag-tagged basic leucine zipper and W2 domain-containing protein 2 (BZW2) (human)
Flag-RalA Q72L (human) = target: T3, Flag-RalA Q72L (human)
Flag-RalA S28N (human) = target: T4, Flag-RalA S28N (human)
Flag-RalB Q72L (human) = target: T5, Flag-RalB Q72L (human)
Flag-RalB S28N (human) = target: T6, Flag-RalB S28N (human)

Binder	binding [1]	binding [2]	binding (Flag-RalA Q72L (human))	binding (Flag-RalA S28N (human))	binding (Flag-RalB Q72L (human))	binding (Flag-RalB S28N (human))
BCAP31 (protein, UniProt P51572 1-246) MSLQWTAVATFLYAEVFVVLLLCIPFISPKRWQKIFKSRLVELLVSYGNTFFVVLIVILVLLVIDAVREIRKYDDVTEKVNLQNNPGAMEHFHMKLFRAQRNLYIAGFSLLLSFLLRRLVTLISQQATLLASNEAFKKQAESASEAAKKYMEENDQLKKGAAVDGGKLDVGNAEVKLEEENRSLKADLQKLKDELASTKQKLEKAENQVLAMRKQSEGLTKEYDRLLEEHAKLQAAVDGPMDKKEE	binds	binds	–	–	–	–
BZW2 as detected in the immunoprecipitates of the Flag-tagged Ral mutants (protein, UniProt Q9Y6E2 1-419) MNKHQKPVLTGQRFKTRKRDEKEKFEPTVFRDTLVQGLNEAGDDLEAVAKFLDSTGSRLDYRRYADTLFDILVAGSMLAPGGTRIDDGDKTKMTNHCVFSANEDHETIRNYAQVFNKLIRRYKYLEKAFEDEMKKLLLFLKAFSETEQTKLAMLSGILLGNGTLPATILTSLFTDSLVKEGIAASFAVKLFKAWMAEKDANSVTSSLRKANLDKRLLELFPVNRQSVDHFAKYFTDAGLKELSDFLRVQQSLGTRKELQKELQERLSQECPIKEVVLYVKEEMKRNDLPETAVIGLLWTCIMNAVEWNKKEELVAEQALKHLKQYAPLLAVFSSQGQSELILLQKVQEYCYDNIHFMKAFQKIVVLFYKADVLSEEAILKWYKEAHVAKGKSVFLDQMKKFVEWLQNAEEESESEGEEN	–	–	binds	binds	no binding	no binding

From PMC10835002
